Experimental findings from the supplement of paper PMC12217912 are described below.

To fix the notation:
B1: TEV protease; numbered along this chain (parent)
chain: MGESLFKGPRDYNPISSSICHLTNESDGHTTSLYGIGFGPFIITNKHLFRRNNGTLVVQSLHGVFKVKDTTTLQQHLVDGRDMIIIRMPKDFPPFPQKLKFREPQREERICLVTTNFQTKSMSSMVSDTSCTFPSGDGIFWKHWIQTKDGQCGSPLVSTRDGFIVGIHSASNFTNTNNYFTSVPKNFMELLTNQEAQQWVSGWRLNADSVLWGGHKVFMVKPEEPFQPVKEATQL

Some of the results follow. The full chains were built here from the parent and the listed change. Values near 0.05 are background.

The variants in this assay derive from B1. Description: raw area under fraction-flipped curve 0-4 h after induction (AUC4h, not background-subtracted), DNA-recorder readout of cleavage of the substrate (dimensionless); higher = more cleavage of the substrate by the protease variant. The conditions noted are these: temperature: 34 °C; time window: 0-4 h after rhamnose induction. As for the experimental part: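 In vivo DNA recorder in E. coli TOP10(DE3) ΔrhaA at 34 °C. Each TEVp single-site mutant (parent TEVp 0) is paired with a single-site variant of the 7-mer TEVs (canonical ENLYFQ|S). The substrate sits between flexible linkers in a Bxb1-sfGFP-TEVs-SsrA fusion, so cleavage stabilises Bxb1 and speeds flipping of a recombination array, read by NGS. The value is the raw area under the fraction-flipped curve over 0-4 h after rhamnose induction (AUC4h), with ≥20 reads per time point. It is not background-subtracted; inactive controls average about 0.047.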
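Further: Bxb1 expression induced with 0.2% (w/v) L-rhamnose at OD600 near 0.5, cultures sampled hourly, flipped fraction per protease–substrate barcode pair counted by paired-end Illumina sequencing.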

On to N177I, for which the “area with substrate ENLYFQA” value was determined as 0.139, the “area with substrate ENLYFQD” value was 0.076, the “area with substrate ENLYFQH” value amounted to 0.0783 and the “area with substrate ENLYFQL” value is 0.0612. Besides, the “area with substrate ENLYFQM” value is 0.0892, the “area with substrate ENLYFQS” value was 0.145, the “area with substrate ENLYFQW” value is 0.0774 and the “area with substrate ENLYFQY” value was 0.113.
Q194H: the “area with substrate ENLYFQA” value was determined as 0.101, the “area with substrate ENLYFQC” value was determined as 0.116, the “area with substrate ENLYFQD” value was found to be 0.0995 and the “area with substrate ENLYFQF” value worked out at 0.0785. The “area with substrate ENLYFQG” value came out at 0.0842, the “area with substrate ENLYFQH” value was 0.086, the “area with substrate ENLYFQI” value is 0.0742 and the “area with substrate ENLYFQK” value came to 0.0636. Besides, the “area with substrate ENLYFQL” value was found to be 0.0605, the “area with substrate ENLYFQM” value stood at 0.0944, the “area with substrate ENLYFQN” value stood at 0.0736 and the “area with substrate ENLYFQR” value amounted to 0.0619. Besides, the “area with substrate ENLYFQS” value was found to be 0.107, the “area with substrate ENLYFQW” value is 0.0768 and the “area with substrate ENLYFQY” value is 0.0818.
Regarding Q194N, the “area with substrate ENLYFQA” value was 0.138, the “area with substrate ENLYFQC” value amounted to 0.156, the “area with substrate ENLYFQD” value was 0.0849 and the “area with substrate ENLYFQE” value turned out to be 0.0642. For the same variant, the “area with substrate ENLYFQH” value came out at 0.0717, the “area with substrate ENLYFQL” value is 0.0627, the “area with substrate ENLYFQM” value was found to be 0.113 and the “area with substrate ENLYFQN” value worked out at 0.156. Besides, the “area with substrate ENLYFQR” value amounted to 0.0639, the “area with substrate ENLYFQS” value was found to be 0.114, the “area with substrate ENLYFQT” value was determined as 0.0623 and the “area with substrate ENLYFQV” value came to 0.048. The “area with substrate ENLYFQW” value worked out at 0.0751 and the “area with substrate ENLYFQY” value worked out at 0.0632.
Regarding M188N, the “area with substrate ENLYFQA” value turned out to be 0.13, the “area with substrate ENLYFQC” value is 0.114, the “area with substrate ENLYFQD” value amounted to 0.0615 and the “area with substrate ENLYFQG” value was 0.0839. The “area with substrate ENLYFQH” value was 0.0577, the “area with substrate ENLYFQK” value came to 0.0478, the “area with substrate ENLYFQL” value was found to be 0.0784 and the “area with substrate ENLYFQN” value was determined as 0.07. Further, the “area with substrate ENLYFQR” value came to 0.0423, the “area with substrate ENLYFQS” value was determined as 0.0957, the “area with substrate ENLYFQV” value came out at 0.065 and the “area with substrate ENLYFQW” value was 0.0835. For the same variant, the “area with substrate ENLYFQY” value came out at 0.073.
S169I: the “area with substrate ENLYFQA” value was determined as 0.0645, the “area with substrate ENLYFQC” value is 0.0506, the “area with substrate ENLYFQE” value worked out at 0.0688 and the “area with substrate ENLYFQF” value was 0.0819. The “area with substrate ENLYFQH” value was 0.056, the “area with substrate ENLYFQI” value is 0.0574, the “area with substrate ENLYFQK” value turned out to be 0.0677 and the “area with substrate ENLYFQL” value was found to be 0.0646. Besides, the “area with substrate ENLYFQM” value is 0.0548, the “area with substrate ENLYFQN” value worked out at 0.0509, the “area with substrate ENLYFQP” value was found to be 0.062 and the “area with substrate ENLYFQR” value was determined as 0.047. In addition, the “area with substrate ENLYFQS” value is 0.0605, the “area with substrate ENLYFQT” value came to 0.0675, the “area with substrate ENLYFQV” value was determined as 0.0568 and the “area with substrate ENLYFQW” value stood at 0.0449. The “area with substrate ENLYFQY” value was 0.0444.
With E195A, the “area with substrate ENLYFQA” value is 0.107, the “area with substrate ENLYFQC” value was 0.0787, the “area with substrate ENLYFQD” value worked out at 0.0722 and the “area with substrate ENLYFQG” value was found to be 0.0826. Moreover, the “area with substrate ENLYFQH” value stood at 0.0798, the “area with substrate ENLYFQI” value stood at 0.082, the “area with substrate ENLYFQL” value was determined as 0.0695 and the “area with substrate ENLYFQN” value was 0.0817. For the same variant, the “area with substrate ENLYFQP” value was found to be 0.0595, the “area with substrate ENLYFQQ” value is 0.0726, the “area with substrate ENLYFQR” value came to 0.0438 and the “area with substrate ENLYFQS” value turned out to be 0.112. For the same variant, the “area with substrate ENLYFQT” value is 0.0708, the “area with substrate ENLYFQV” value is 0.0601 and the “area with substrate ENLYFQW” value stood at 0.0624.
